Test results taken from the supplement of paper PMC10670038.
Where a name gives a salt, the structure may show the parent alone. ± gives the standard deviation of the averaged measurements. In all, about 2,000 compounds were measured (“relative cell viability vs DMSO, compound alone”: median about 1.1, lowest 2% from about 0.29 on). Some of the results follow.

test system: TE10; assay: relative cell viability vs DMSO, compound alone (fraction); TE10 is an esophageal squamous carcinoma line; higher = less cytotoxic; settings: 2 µM; 48 h
Description: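 TE10 ESCC cells (1,000/well, 384-well plates) were treated with Selleck bioactive library compounds at 2 uM alone for 48 h. Viability was read by CellTiter-Glo and expressed relative to DMSO wells. Two technical replicates (A, B).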

Compared with `C#Cc1cccc(Nc2ncnc3cc4c(cc23)OCCOCCOCCO4)c1` [Icotinib], `O=c1cc(-c2cccc3c2Sc2ccccc2S3)oc(N2CCOCC2)c1` is higher in relative cell viability: 1.04 ± 0.039 for the first, 1.22 ± 0.014 for the second.

Going from `C=CC(=O)Nc1cc(Nc2nccc(-c3c[nH]c4ccccc34)n2)c(OC)cc1N(C)CCN(C)C` to `Cn1cnc(-c2cc3nccc(Oc4ccc(NC(=S)NC(=O)Cc5ccccc5)cc4F)c3s2)c1`, the relative cell viability rises from 0.807 ± 0.014 to 1.11 ± 0.033.

Compared with `CC1=C(/C=C/C(C)=C/C=C/C(C)=C/C(=O)O)C(C)(C)CCC1` [Tretinoin], `CC1(C)CCC(C)(C)c2cc(NC(=O)c3ccc(C(=O)O)cc3)ccc21` [Tamibarotene] is higher in relative cell viability: 0.915 ± 0.037 for the first, 1.13 ± 0.035 for the second.

`C[C@]12CC[C@H](O)CC1=CC[C@@H]1[C@@H]2CC[C@]2(C)C(n3cnc4ccccc43)=CC[C@@H]12` [Galeterone] and `CC(=O)[C@H]1CC[C@H]2[C@@H]3CCC4=CC(=O)CC[C@]4(C)[C@H]3CC[C@]12C` [Progesterone] are within error of each other in relative cell viability: 1.06 ± 0.14 for the first, 1.02 ± 0.0047 for the second.

Compared with `Nc1nc(NC2CC2)cc(-c2cccc(Cl)c2Cl)n1`, `Nc1cccc2c1C(=O)N(C1CCC(=O)NC1=O)C2=O` (configuration not stated) [Pomalidomide] is higher in relative cell viability: 0.9023 ± 0.0067 for the first, 0.98 ± 0.053 for the second.

`CNS(=O)(=O)CCc1ccc2[nH]cc(C3CCN(C)CC3)c2c1` [Naratriptan] and `O=C(Nc1nc2cccc(-c3ccc(CN4CCS(=O)(=O)CC4)cc3)n2n1)C1CC1` [Filgotinib (GLPG0634)] are within error of each other in relative cell viability: 1.14 ± 0.086 for the first, 1.06 ± 0.026 for the second.

`CC(=O)Oc1ccccc1C(=O)O` [Aspirin] and `CC(=O)Nc1ccccc1` [Acetanilide] are within error of each other in relative cell viability: 0.99912 ± 0.00059 for the first, 0.976 ± 0.25 for the second.

`N=C(N)NS(=O)(=O)c1ccc(N)cc1` [Sulfaguanidine] and `CCCN(CCC)S(=O)(=O)c1ccc(C(=O)O)cc1` [Probenecid] are within error of each other in relative cell viability: 1.16 ± 0.013 for the first, 1.14 ± 0.016 for the second.

`COc1ccc2ccc(=O)oc2c1CC=C(C)C` [Osthole] and `Cc1cc(=O)oc2c(C=O)c(O)ccc12` are within error of each other in relative cell viability: 1.11 ± 0.053 for the first, 1.17 ± 0.034 for the second.

Compared with `Cn1cc(CNCC2CCN(c3ncc(C(=O)NO)cn3)CC2)c2ccccc21`, `CCOC(=O)CCNc1cc(N2CCc3ccccc3CC2)nc(-c2ccccn2)n1` is higher in relative cell viability: 0.078 ± 0.0008 for the first, 0.957 ± 0.1 for the second.

Going from `CN(C)CC/C=C1/c2ccccc2Sc2ccc(Cl)cc21` [Chlorprothixene] to `OCCOCCN1CCN(C2=Nc3ccccc3Sc3ccccc32)CC1` [Quetiapine Fumarate], the relative cell viability rises from 0.973 ± 0.067 to 1.079 ± 0.0073.

Going from `CN(C)CCOC(c1ccccc1)c1ccccc1` [Diphenhydramine HCl] to `CN(C)CCN(Cc1ccccc1)c1ccccn1` [Tripelennamine HCl], the relative cell viability rises from 1.02 ± 0.012 to 1.08 ± 0.017.

Compared with `COc1ccc2[nH]c([S+]([O-])Cc3ncc(C)c(OC)c3C)nc2n1` (configuration not stated) [Tenatoprazole], `Cc1nc2ccc(-n3ncc(C(=O)c4cc5ccccc5[nH]4)c3N)cc2[nH]1` is lower in relative cell viability: 1.11 ± 0.014 for the first, 0.93 ± 0.044 for the second.

`CCC(CC)n1ccc2c(C(=O)NCc3c(C)cc(C)[nH]c3=O)cc(C#N)cc21` and `Cc1cc(C)c(Nc2ccnc(Nc3ccc(C#N)cc3)n2)c(C)c1` [Dapivirine (TMC120)] are within error of each other in relative cell viability: 1.145 ± 0.0067 for the first, 1.14 ± 0.043 for the second.

Going from `CCNC(=O)c1[nH]nc(-c2cc(Cl)c(O)cc2O)c1-c1ccc(OC)cc1` to `N#Cc1c(O)c2c(-c3ccc(-c4ccccc4O)cc3)csc2[nH]c1=O`, the relative cell viability rises from 0.64 ± 0.035 to 1.09 ± 0.053.

First: CC(C)c1ccc(NC(=O)Cn2cnc3c2c(=O)n(C)c(=O)n3C)cc1
Second: Cc1ccc(Nc2c(F)cccc2Cl)c(CC(=O)O)c1 [Lumiracoxib]
The relative cell viability of the first is lower: 1.163 ± 0.0012 for the first, 1.231 ± 0.0092 for the second.

`C[C@H](NC(=O)/C(C#N)=C/c1cccc(Br)n1)c1ccccc1` and `O=C(Nc1ccccc1)c1cc([N+](=O)[O-])ccc1Cl` are within error of each other in relative cell viability: 1.14 ± 0.032 for the first, 1.12 ± 0.038 for the second.

First: CC(NC(=O)Cc1cc(F)cc(F)c1)C(=O)NC(C(=O)OC(C)(C)C)c1ccccc1 (configuration not stated)
Second: CC(=O)O[C@@]12CO[C@@H]1C[C@H](O)[C@@]1(C)C(=O)[C@H](O)C3=C(C)[C@@H](OC(=O)[C@H](O)[C@@H](NC(=O)OC(C)(C)C)c4ccccc4)C[C@@](O)([C@@H](OC(=O)c4ccccc4)[C@H]21)C3(C)C [Docetaxel]
The relative cell viability of the first is higher: 1.004 ± 0.0065 for the first, 0.664 ± 0.065 for the second.

`C[C@]12CC[C@@H]3c4ccc(O)cc4CC[C@H]3[C@@H]1CC[C@@H]2O` [Estradiol] and `CCCCC(=O)O[C@H]1CC[C@H]2[C@@H]3CCc4cc(O)ccc4[C@H]3CC[C@]12C` [Estradiol valerate] are within error of each other in relative cell viability: 1.08 ± 0.016 for the first, 1.07 ± 0.1 for the second.

First: CCNC(=O)Nc1ccc(-c2nc3c(c(N4CCOC[C@@H]4C)n2)CCN(C2COC2)C3)cc1
Second: O=C(c1ccc(Nc2nccc(-c3cc4ccccc4s3)n2)cc1)N1CCC(N2CCCC2)CC1 [IKK-16 (IKK Inhibitor VII)]
The relative cell viability of the first is lower: 0.7075 ± 0.0039 for the first, 1.03 ± 0.02 for the second.

Compared with `Clc1ccc(CSC(Cn2ccnc2)c2ccc(Cl)cc2Cl)cc1` (configuration not stated) [Sulconazole Nitrate], `Fc1ccc(Cl)cc1-c1nc(Nc2ccncc2)c2nccnc2n1` is higher in relative cell viability: 0.9596 ± 0.0071 for the first, 1.11 ± 0.049 for the second.

First: Nc1ncnc2c1ncn2[C@@H]1O[C@H](CO)[C@@H](O)[C@H]1O [Adenosine]
Second: Nc1nc(Cl)nc2c1ncn2[C@H]1C[C@H](O)[C@@H](CO)O1 [Cladribine]
The relative cell viability of the first is lower: 1.165 ± 0.0028 for the first, 1.4 ± 0.087 for the second.

Compared with `Cc1cc(/C=C2/SC(=S)NC2=O)c(C)n1-c1cccnc1` [Optovin], `Cc1nc(Nc2cnn(C3CCNCC3)c2)nc2c1N(C)C(=O)c1cc3ccccc3cc1N2C` is higher in relative cell viability: 1.06 ± 0.031 for the first, 1.21 ± 0.045 for the second.

First: CC1CNc2c(cccc2S(=O)(=O)N[C@@H](CCCNC(=N)N)C(=O)N2CC[C@@H](C)C[C@@H]2C(=O)O)C1 (some centres not stated) [Argatroban]
Second: O=C([C@@H](Cc1cccc(C(F)(F)F)c1)NS(=O)(=O)c1cc(F)c2c(c1)CCNC2)N1CCCC1
The relative cell viability of the first is lower: 0.878 ± 0.015 for the first, 1.1 ± 0.028 for the second.

Compared with `CO[C@H]1C[C@@H]2CC[C@@H](C)[C@@](O)(O2)C(=O)C(=O)N2CCCC[C@H]2C(=O)O[C@H]([C@H](C)C[C@@H]2CC[C@@H](OCCO)[C@H](OC)C2)CC(=O)[C@H](C)/C=C(\C)[C@@H](O)[C@@H](OC)C(=O)[C@H](C)C[C@H](C)/C=C/C=C/C=C/1C` [Everolimus (RAD001)], `C=C[C@]1(C)C[C@@H](OC(=O)CS[C@@H]2C[C@H]3CC[C@@H](C2)N3C)[C@]2(C)[C@H](C)CC[C@]3(CCC(=O)[C@H]32)[C@@H](C)[C@@H]1O` [Retapamulin] is higher in relative cell viability: 0.787 ± 0.044 for the first, 1.29 ± 0.028 for the second.

First: Nc1ccn([C@@H]2O[C@H](CO)[C@@H](O)C2(F)F)c(=O)n1 [Gemcitabine]
Second: CN(N=O)C(=O)NC1C(O)OC(CO)C(O)C1O (configuration not stated) [Streptozotocin (STZ)]
The relative cell viability of the first is lower: 0.964 ± 0.038 for the first, 1.086 ± 0.0041 for the second.

Going from `COc1ccccc1N1CCN(CCN(C(=O)C2CCCCC2)c2ccccn2)CC1` to `CN1CCN(Cc2ccc(NC(=O)Cc3ccc(Oc4cc(NC(=O)C5CC5)ncn4)cc3)cc2C(F)(F)F)CC1`, the relative cell viability falls from 1.08 ± 0.025 to 0.7225 ± 0.0028.

`CC(=O)O[C@@]12CO[C@@H]1C[C@H](O)[C@@]1(C)C(=O)[C@H](O)C3=C(C)[C@@H](OC(=O)[C@H](O)[C@@H](NC(=O)OC(C)(C)C)c4ccccc4)C[C@@](O)([C@@H](OC(=O)c4ccccc4)[C@H]21)C3(C)C` [Docetaxel Trihydrate] and `COc1cc(C(=O)O)ccc1NC(=O)[C@@H]1N[C@@H](CC(C)(C)C)[C@](C#N)(c2ccc(Cl)cc2F)[C@H]1c1cccc(Cl)c1F` [Idasanutlin (RG-7388)] are within error of each other in relative cell viability: 0.783 ± 0.072 for the first, 0.928 ± 0.079 for the second.

First: Oc1ccc(OC2CCCCO2)cc1 (configuration not stated) [Deoxyarbutin]
Second: Oc1ccc([C@H]2COc3cc(O)ccc3C2)cc1 [Equol]
The relative cell viability of the first is lower: 0.918 ± 0.11 for the first, 1.08 ± 0.038 for the second.

First: O=C(O)C(O)Cc1ccc(O)c(O)c1 (configuration not stated) [Sodium Danshensu]
Second: O=C(CCc1ccc(O)cc1)c1c(O)cc(O)cc1O[C@@H]1O[C@H](CO)[C@@H](O)[C@H](O)[C@H]1O [Phlorizin]
The relative cell viability of the first is lower: 0.696 ± 0.044 for the first, 1.16 ± 0.074 for the second.

Going from `N[C@@H](Cc1cc(I)c(Oc2cc(I)c(O)c(I)c2)c(I)c1)C(=O)O` [L-Thyroxine] to `Cc1cc(C(=O)NOCCO)c(Nc2ccc(I)cc2F)n(C)c1=O`, the relative cell viability falls from 1.12 ± 0.021 to 0.579 ± 0.024.

Compared with `O=C(C=Cc1ccccc1)NC(NC(=S)Nc1ccc(Cl)cc1)C(Cl)(Cl)Cl` (configuration not stated), `O=C(/C=C/c1ccc2ccccc2n1)c1ccncc1` is lower in relative cell viability: 1.07 ± 0.03 for the first, 0.685 ± 0.16 for the second.

First: CC1(C)S[C@@H]2[C@H](NC(=O)[C@H](N)c3ccc(O)cc3)C(=O)N2[C@H]1C(=O)O [Amoxicillin Sodium]
Second: COc1cccc2c1C(=O)c1c(O)c3c(c(O)c1C2=O)C[C@@](O)(C(=O)CO)C[C@@H]3O[C@H]1C[C@H](N)[C@H](O)[C@H](C)O1 [Doxorubicin (Adriamycin)]
The relative cell viability of the first is higher: 1.09 ± 0.024 for the first, 0.3423 ± 0.00049 for the second.

Going from `CC1(C)S[C@@H]2[C@H](NC(=O)[C@H](N)c3ccc(O)cc3)C(=O)N2[C@H]1C(=O)O` [Amoxicillin] to `Cc1cc(C(N)=O)ccc1-n1c(CCC(=O)O)ccc1-c1ccc(-n2ccnc2)cc1`, the relative cell viability rises from 0.9126 ± 0.0014 to 1.07 ± 0.043.

`Cc1[nH]c2ccccc2c1CCNC(=O)c1cccs1` and `Cc1onc(-c2ccccc2)c1-c1ccc(S(N)(=O)=O)cc1` [Valdecoxib] are within error of each other in relative cell viability: 1.08 ± 0.069 for the first, 1.17 ± 0.047 for the second.

Going from `N=C(N)c1ccc(OCCCCCOc2ccc(C(=N)N)cc2)cc1` [Pentamidine] to `Fc1ccc(C(c2ccc(F)cc2)N2CCN(C/C=C/c3ccccc3)CC2)cc1` [Flunarizine 2HCl], the relative cell viability falls from 1.17 ± 0.025 to 1.09 ± 0.044.

`CCCc1cc(=O)[nH]c(=S)[nH]1` [Propylthiouracil] and `C=C1C(=O)O[C@@H]2/C=C(\C)CC/C=C(\C)CC[C@@H]12` [Costunolide] are within error of each other in relative cell viability: 1.08 ± 0.065 for the first, 1.03 ± 0.07 for the second.

`CO/N=C(\C(=O)N[C@@H]1C(=O)N2C(C(=O)OCOC(=O)C(C)(C)C)=C(/C=C\c3scnc3C)CS[C@H]12)c1csc(N)n1` [Cefditoren Pivoxil] and `C[C@]12CCC(=O)C=C1CC[C@@H]1[C@@H]2[C@@H](O)C[C@@]2(C)[C@H]1CC[C@]2(O)C(=O)CO` [Hydrocortisone] are within error of each other in relative cell viability: 0.991 ± 0.099 for the first, 1.03 ± 0.013 for the second.

`Oc1ncnc2[nH]ncc12` [Allopurinol] was tested, and the relative cell viability was 1.05 ± 0.072.
